# The supplement of paper PMC3334620
# Whole data set: some 33,000 sequences, median “E-score (-0.5 to 0.5)” near -0.011, cut for the highest 2% near 0.28. The list shows a part of the results.
# Target: T1, Gcr1 (UniProt P07261)
# T1 sequence: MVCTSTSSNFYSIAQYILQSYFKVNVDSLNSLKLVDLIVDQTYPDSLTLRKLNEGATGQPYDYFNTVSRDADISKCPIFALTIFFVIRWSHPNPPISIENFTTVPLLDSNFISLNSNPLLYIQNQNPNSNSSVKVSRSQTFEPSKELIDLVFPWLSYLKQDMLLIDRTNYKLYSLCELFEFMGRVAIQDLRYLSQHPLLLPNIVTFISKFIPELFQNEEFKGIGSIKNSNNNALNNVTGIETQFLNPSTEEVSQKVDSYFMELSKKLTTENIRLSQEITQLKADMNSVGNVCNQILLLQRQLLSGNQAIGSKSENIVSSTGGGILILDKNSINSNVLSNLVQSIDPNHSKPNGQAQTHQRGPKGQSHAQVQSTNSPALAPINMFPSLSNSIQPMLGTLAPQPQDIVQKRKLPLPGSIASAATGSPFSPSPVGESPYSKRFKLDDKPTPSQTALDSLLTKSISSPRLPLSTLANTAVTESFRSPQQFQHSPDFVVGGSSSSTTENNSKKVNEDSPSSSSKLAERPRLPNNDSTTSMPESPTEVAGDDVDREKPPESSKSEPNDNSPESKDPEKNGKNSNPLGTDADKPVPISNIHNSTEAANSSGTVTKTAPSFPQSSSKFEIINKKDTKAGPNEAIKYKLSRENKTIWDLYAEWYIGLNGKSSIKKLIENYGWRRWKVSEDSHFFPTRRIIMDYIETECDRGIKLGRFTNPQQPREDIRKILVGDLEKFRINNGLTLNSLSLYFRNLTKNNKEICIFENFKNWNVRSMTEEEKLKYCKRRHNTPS
# Assay: PBM E-score (8-mer binding enrichment) (E-score (-0.5 to 0.5)); higher = stronger / more preferred TF binding; most listed sequences are background and not binding sites
# Settings: protein concentration: 100 nM; construct: GST-full length
# Procedure: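 Universal 'all 10-mer' protein binding microarrays (Agilent AMADID 015681) probed with GST-tagged S. cerevisiae TFs (full-length or DBD) made by in vitro transcription/translation (PURExpress), about 100-200 nM. Bound TF was detected with fluorescent anti-GST. Each ungapped 8-mer (which stands for itself and its reverse complement) is scored by the PBM enrichment score (E-score), a modified Wilcoxon-Mann-Whitney statistic from -0.5 to +0.5, computed with the Universal PBM Analysis Suite. Scale: above 0.35 generally sequence-specific binding.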
row,Sequence,PBM E-score
1,CGGCTGAC,-0.0859
2,CTTCTCGC,-0.0601
3,AGCTACAC,0.109
4,AACTGGCC,-0.022
5,CCAAGATA,0.00341
6,AGCGTTAT,-0.0559
7,ACGATGTC,0.0246
8,GATATCTA,-0.0937
9,CATCGCCA,-0.0864
10,AAACCCTT,-0.111
11,GAAGGTGC,0.0418
12,GTTCTCTA,-0.102
13,CGCTTAGA,-0.096
14,CATGCCAG,-0.0524
15,CGCCGTGC,-0.00662
16,GCTCGCGA,0.0716
17,GATAGGTA,0.085
18,AATCCTGG,0.236
19,ACATTTAG,-0.0569
20,TCGATCGA,-0.201
21,GGCTTTAA,0.0001
22,CAATCGGG,0.0633
23,CTGCGTCC,0.0798
24,AGCCAAAC,0.0142
25,CGAATCTC,0.121

row,Sequence,PBM E-score
1,ATACTAAA,0.0949
2,ATCGTGAG,-0.119
3,CGCGTCAA,-0.125
4,AGCAAATG,-0.173
5,GGCATTAC,0.0997
6,TAGAGACA,-0.00352
7,ATCCTGTA,0.28
8,GAGATCTC,-0.275
9,CACGAGGA,-0.15
10,CCGAGCTA,0.0423
11,CATGCAAG,0.0258
12,TATGTAGA,-0.151
13,AGATGAGC,-0.102
14,GGAATATA,0.0473
15,CTACAGAG,-0.153
16,AGTAACAA,0.00147
17,CGCCTACA,-0.0275
18,CGCCTAGC,-0.206
19,GCACGCAA,-0.217
20,GAGTCATA,0.0243
21,ATATTTAC,0.143
22,GGAACGGA,-0.0468
23,AAAAGTGA,0.0915
24,ATGGTGGC,0.0364
25,GTGATTCA,0.0211

row,Sequence,PBM E-score
1,GGTAGTTA,0.103
2,ACGCTGGG,-0.122
3,CGGCGGGC,0.0159
4,ATGGACGG,0.101
5,ACTGGGAT,0.0877
6,CGGCAGGC,-0.251
7,AGGCAAGG,-0.236
8,ACATATAC,-0.0232
9,CGATGGAG,-0.213
10,CGTAATTA,-0.121
11,CGTACGAC,-0.279
12,CAGATCAC,-0.045
13,GGAGTCGA,0.035
14,ACTACGTG,-0.0591
15,AAACCTTA,-0.107
16,AAACTATA,0.064
17,CATCAAAG,-0.0852
18,GGCTGCGA,0.192
19,AGCTAAAG,-0.226
20,CAGTCCGC,-0.0832
21,CACCGTGG,-0.0428
22,CAAATACC,0.0468
23,CCGCTGCC,0.0824
24,ACGACGCC,0.217
25,ATGCGAGA,0.113

row,Sequence,PBM E-score
1,CGCTTGCA,-0.00059
2,CGCCGCAG,0.103
3,CTCCCCTA,0.0438
4,ATTTTACA,-0.0742
5,ACGCCAGC,-0.202
6,TAGCCTCA,-0.053
7,GGCGACTA,0.147
8,CTCAATCC,-0.0319
9,AAAGAATA,-0.0583
10,GTCCTCTA,0.2
11,AGACTTCA,0.0151
12,AATAAGAA,0.328
13,TCCCGACA,-0.12
14,CTTCGTGC,-0.148
15,AGGGCGTC,0.26
16,CAACGGAC,-0.00395
17,ATGGGCCC,0.0692
18,CACTGAAG,0.117
19,CGGGCCTC,-0.0105
20,CGAGTTAA,0.023
21,CAAGGTCG,-0.152
22,AAGAGTCT,0.0305
23,GCTGTCTA,-0.286
24,CGATTCAG,-0.0595
25,CCATTAGC,-0.0372

row,Sequence,PBM E-score
1,AATTGGTA,0.231
2,TCCTAACA,0.126
3,AGTCGATC,-0.193
4,AGCAGGCA,-0.128
5,TACCACAA,0.187
6,CTTCAGCC,-0.204
7,ACGTAGCG,-0.13
8,ACGACAAA,0.254
9,AAAACACC,-0.00688
10,ACTATCAT,-0.0404
11,ATGGAGTG,-0.0908
12,AAGTGAAG,0.0686
13,AAACGGCT,-0.107
14,CTTTTCCA,-0.0955
15,ACTCCGCT,-0.0772
16,AGTACTCG,-0.00247
17,CGCCAGGC,-0.218
18,ATCCCCCC,-0.166
19,CGTATATC,0.145
20,ACCGCAAC,0.0759
21,CGTGCCTA,-0.121
22,CTCAGGCC,-0.121
23,TCAATCAA,0.0107
24,AGGTTAGA,0.0712
25,AGTTCACA,0.0192

row,Sequence,PBM E-score
1,AGAAGGAT,-0.242
2,CCTTGAAG,-0.121
3,ACCCCATA,0.0773
4,GACACGAA,0.082
5,GGGTCGTA,-0.123
6,CATGGGTC,-0.0305
7,GAATCAAC,0.11
8,AGCTCTAG,-0.126
9,TACGTGCA,-0.116
10,CACATCAA,0.0698
11,GACTCCCA,0.197
12,GCGTTATA,-0.16
13,GCCATTAA,0.12
14,GCATGCAC,-0.24
15,CCGAATCA,-0.0631
16,TAGGGGAA,0.274
17,ACAGTCCC,-0.302
18,AGCACATA,-0.12
19,ATGATGTA,0.0362
20,GTTGTCGA,0.147
21,GATGCACA,-0.0673
22,ATTTCCCC,0.09
23,ACTCGGGC,-0.143
24,CTAACCGC,-0.0901
25,CCGGAGAG,-0.0489

row,Sequence,PBM E-score
1,CTATAGAA,0.0208
2,GATGATCC,-0.0894
3,AGGTGGTG,0.0323
4,ACGGACCG,-0.0393
5,GAACTTGA,0.233
6,AAAAGAAG,0.309
7,GGTATTTA,0.0653
8,ATGCTTTC,0.0529
9,TAGTCGGA,0.178
10,CTTACGTA,-0.154
11,AACGAAAA,-0.126
12,AACGAGAA,0.0348
13,ATCGTAGA,0.00018
14,TTATCGAA,0.133
15,CTAACTCC,-0.0198
16,AACTTTCC,-0.105
17,TACCTACA,0.122
18,ACCCGAGT,0.005
19,ATAAGAAA,0.171
20,ACTAACCG,-0.0516
21,GATTAACA,-0.0694
22,ACAAAGCG,0.224
